In all, about 310,000 compounds went through this assay and about 2,200 (0.71%) showed an effect of 50% or more. The effect is printed as a negative number. Some of the results follow.
Target: human ether-à-go-go-related gene (hERG) potassium channel (human, UniProt Q12809)
Assay: primary screen, population patch clamp on CHO cells stably expressing hERG

human ether-à-go-go-related gene (hERG) potassium channel, sequence (Q12809 whole entry, looked up): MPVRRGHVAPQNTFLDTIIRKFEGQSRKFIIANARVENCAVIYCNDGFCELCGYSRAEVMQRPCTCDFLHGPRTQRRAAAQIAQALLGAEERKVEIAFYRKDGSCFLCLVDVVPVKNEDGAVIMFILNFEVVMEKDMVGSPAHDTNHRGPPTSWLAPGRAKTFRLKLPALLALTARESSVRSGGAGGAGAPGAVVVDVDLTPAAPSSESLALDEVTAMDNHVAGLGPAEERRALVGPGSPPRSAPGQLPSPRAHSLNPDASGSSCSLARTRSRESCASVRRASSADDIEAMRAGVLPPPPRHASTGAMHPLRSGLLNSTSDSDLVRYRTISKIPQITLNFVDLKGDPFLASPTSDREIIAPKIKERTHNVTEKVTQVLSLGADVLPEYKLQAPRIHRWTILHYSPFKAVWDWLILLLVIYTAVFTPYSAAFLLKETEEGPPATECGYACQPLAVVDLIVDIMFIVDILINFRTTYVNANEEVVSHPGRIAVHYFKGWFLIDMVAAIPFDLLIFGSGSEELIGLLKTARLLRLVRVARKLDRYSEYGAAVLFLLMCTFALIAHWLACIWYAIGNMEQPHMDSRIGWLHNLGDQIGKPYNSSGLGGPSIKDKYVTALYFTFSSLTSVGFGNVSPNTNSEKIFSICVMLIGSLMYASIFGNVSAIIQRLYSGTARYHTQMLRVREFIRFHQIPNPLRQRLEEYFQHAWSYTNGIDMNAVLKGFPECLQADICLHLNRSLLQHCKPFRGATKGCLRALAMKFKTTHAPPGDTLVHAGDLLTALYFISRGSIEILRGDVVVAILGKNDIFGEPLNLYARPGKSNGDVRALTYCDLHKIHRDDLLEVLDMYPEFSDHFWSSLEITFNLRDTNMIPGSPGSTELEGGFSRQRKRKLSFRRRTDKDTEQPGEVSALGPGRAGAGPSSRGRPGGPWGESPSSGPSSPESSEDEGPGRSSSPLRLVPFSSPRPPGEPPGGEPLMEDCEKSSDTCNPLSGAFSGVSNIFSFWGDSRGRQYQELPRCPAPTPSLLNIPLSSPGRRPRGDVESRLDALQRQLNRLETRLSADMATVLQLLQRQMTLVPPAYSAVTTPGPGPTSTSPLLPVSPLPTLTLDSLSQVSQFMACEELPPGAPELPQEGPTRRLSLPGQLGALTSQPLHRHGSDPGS

Compound | hERG current change (%, negative = inhibition) at 1uM
CCc1nnc(SCc2ccc(OC(C)C)cc2)n1N | 12.3%
CC1(c2ccccc2Cl)NC(=O)N(CC(=O)NCc2ccc3c(c2)OCO3)C1=O (stereo not drawn) | 14%
O=C(CN1C(=O)C(=O)c2ccccc21)c1ccccc1 | 10.8%
CCOC(=O)C1=C(CC)Nc2ccccc2N=C1NC(=O)CCN1C(=O)C2CCCCC2C1=O (stereo not drawn) | 10.8%
Cc1ccc2c(C)c(C(=O)Nc3ccc(S(N)(=O)=O)cc3)oc2c1C | 19.2%
Cc1ccc(-n2c(O)c(C=NC3CCS(=O)(=O)C3)c3ccccc3c2=O)c(C)c1 (stereo not drawn) | 9.94%
COc1ccc(OC)c(NC(=O)CSC2=NN3CCCC(=O)N=C3S2)c1 | 3.3%
O=C(c1ccc(-n2cncn2)c([N+](=O)[O-])c1)N1CCN(S(=O)(=O)c2ccc(Cl)cc2)CC1 | -29.5%
COc1ccc(CNC(=O)CCc2ccc(S(=O)(=O)N3CCCCCC3)cc2)cc1 | -3.54%
COc1cc(/C=C/[N+](=O)[O-])ccc1O | 9.94%
CCNC(=O)c1ccc(-n2nc(C(F)(F)F)c3c2CCCC3)cc1 | 5.17%
COc1ccc(C2c3[nH]c4ccccc4c3CCN2CCCn2cccn2)cc1C (stereo not drawn) | -2.09%
Cn1c(N)c(C(=O)COC(=O)/C=C/c2cccc(F)c2)c(=O)n(C)c1=O | -3.8%
CC(C)(C)c1ccc(C(=O)CCC(=O)NCc2ccccc2)cc1 | -1.75%
CCC(C(=O)NCc1ccc(F)cc1)N(Cc1cccs1)C(=O)c1snc(C(N)=O)c1N (stereo not drawn) | -1.93%
CCCc1nc2sc3ccccc3c(=O)c2c(=O)n1Cc1ccc(OC)cc1 | 8.29%
CCNc1nc(N)c(C(=O)C23CC4CC(CC(C4)C2)C3)s1 | 11%
Cc1ccc(S(=O)(=O)N2CCN(CC(=O)N(CC(C)C)c3c(N)n(CC(C)C)c(=O)[nH]c3=O)CC2)c(C)c1 | 11%
CC(=O)c1ccc(NC(=O)CNCc2cccs2)cc1.O=C(O)C(=O)O | 10.5%
CCN(CC)S(=O)(=O)c1ccc2c(c1)c(=O)c(C(=O)NCCOC)cn2C | -6.38%
COc1cc(C(=O)OCC(=O)Nc2cc(C)on2)ccc1OCc1ccccc1Cl | 9.21%
CCCCOC(=O)Nc1ccc(C(=O)OC)cc1 | 15.2%
C=CCn1c(/N=C/c2ccc(N(C)C)cc2)nc2ccccc21 | 1.61%

Compound | hERG current change (%, negative = inhibition) at 1uM
CCCCC(O)(CCCC)C(=O)NNc1ccccc1 | 11.5%
CCOC(=O)CNC(=O)CSc1nnnn1-c1ccc(C)c(C)c1 | 0.993%
COc1ccc(C2CCCN2C(=O)Nc2ccc(C)c(C)c2)cc1OC (stereo not drawn) | 2.78%
Cc1ccc(NC(=O)C(=O)NCCc2c[nH]c3ccccc23)c(C)c1 | 4.11%
CCOCCCNC(=O)C(c1ccc(OC)cc1)N(Cc1cccs1)C(=O)c1ccccn1 (stereo not drawn) | 3.99%
N/C(=N\OC(=O)COc1ccc2ccccc2c1Br)c1ccncc1 | 8.36%
CC(C)N1CN(c2ccccc2)C(=S)N(c2ccccc2)C1 | 9.09%
O=C(NCCO)C(O)C(O)C(=O)NCCO (stereo not drawn) | 10.4%
CCOC(=O)CSC1=N/C(=C/c2ccc(-n3cncn3)cc2)C(=O)N1C(C)=O | 3.15%
COCc1[nH]nc2c1C1(CCC3(CC1)OCCO3)C(C#N)=C(N)O2 | -17.6%
COCCn1c(-c2ccccc2Cl)nc2c(c(=O)c3ccccc3n2C)c1=O | 8.71%
CC(C)c1nnc(NC(=O)c2nc(S(=O)(=O)Cc3ccccc3F)ncc2Cl)s1 | 7.62%
O=C(CCS(=O)(=O)c1ccc(Br)s1)NCc1ccc2c(c1)OCO2 | 3.04%
O=C(NNC(=O)C(c1ccccc1)c1ccccc1)c1cccs1 | 22.2%
COC(=O)N/N=C/c1ccc(-c2cccc(Cl)c2)o1 | 3.19%
O=C(Nc1ccccc1O)c1cc2cc(Br)ccc2oc1=O | 10%
COC(=O)CC1NCCNC1=O (stereo not drawn) | 9.71%
Cc1ccc(NC(=S)N(CCCN2CCOCC2)Cc2ccccn2)cc1 | -7.02%
CCn1c2ccc(CC(=O)O)cc2c2cc(CC(=O)O)ccc21 | 15.2%
O=[N+]([O-])c1cc(S(=O)(=O)N2CCCC2)ccc1OCCOc1ccccc1 | -15.7%
COc1cc(/C=C/C(=O)O)ccc1OCc1ccc([N+](=O)[O-])cc1 | 9.78%
Cn1c2c(c(=O)c3ccccc31)CCC(C)(C)O2 | 14%
COc1ccc(C(=O)C2CCCN(C(=O)c3ccc4cc[nH]c4c3)C2)c(C)c1 (stereo not drawn) | 2.73%

Compound | hERG current change (%, negative = inhibition) at 1uM
CC1CCCN(C(=O)Cc2cccc3ccccc23)C1 (stereo not drawn) | 11%
COc1cc(Cl)nn(-c2ccccc2)c1=O | 13.3%
CCCCCNC(=O)C1CCC(Cn2c(=S)[nH]c3ccccc3c2=O)CC1 (stereo not drawn) | 11.4%
N#CC(C(=O)Nc1ccc(Cl)cc1)=C1Nc2ccccc2N1 | 13.2%
C#CCN(C(=O)c1ccc(OC2CCN(Cc3ccccn3)CC2)cc1)C1CCCCC1 | -2.82%
Oc1ccc(/C=N/Nc2cc(N3CCOCC3)nc(N3CCOCC3)n2)cc1O | 12.2%
COc1ccc(C2(C(=O)NCCN3CCOCC3)CCOCC2)cc1 | 3.91%
Cn1c(SCC(=O)N2CCCCCC2)nc2c(c1=O)SCC2 | 16%
CCC(C)(C(=O)NC1CCCC1)N(CC1CCCO1)C(=O)CNC(=O)c1ccccc1 (stereo not drawn) | 8.4%
C[C@H](C(=O)O)c1n[nH]c(=O)c2ccccc12 | 7.97%
CC(=O)Nc1cc(-n2cnnn2)ccc1C | 14.7%
COC(=O)c1sc(NC(=S)NC(=O)c2ccccc2C)nc1C | 10.2%
Cc1cc(C)nc(SCC(=O)N(C)C)n1 | 6.9%
Cc1ccc(-c2nn(-c3ccccc3Cl)cc2C(=O)NCC2CCCO2)cc1 (stereo not drawn) | 18.4%
COc1ccc(-c2ccnc3nc(Sc4ncc(C(F)(F)F)cc4Cl)nn23)cc1 | -2.72%
CC(ON1CC1(C(F)(F)F)C(F)(F)F)(C(N)=O)C(N)=O (stereo not drawn) | 2.65%
O=C(COc1ccc(Cl)cc1)NN=C1CCCCCCC1 | 7.41%
O=C(c1ccc(=O)[nH]n1)N1CCN(S(=O)(=O)c2ccc(C(F)(F)F)cc2)CC1 | 0.105%
CCOc1ccc(S(=O)(=O)NCCC(=O)N2CCC(Cc3ccccc3)CC2)cc1 | -0.558%
O=C(NCCC1=CCCCC1)c1ccc(F)c(S(=O)(=O)N2CCOCC2)c1 | 15%
Cc1[nH]n(C(N)=S)c(=O)c1N=Nc1ccc(S(=O)(=O)N2CCCCCC2)cc1 | 16.5%
CN(c1ccc(C(=O)Nc2ccc(S(=O)(=O)N3CCCC3)cc2)cc1)S(C)(=O)=O | 16.3%
CCOC(=O)C1CCCN(Cc2c(Cl)cccc2Cl)C1 (stereo not drawn) | -3.08%

Compound | hERG current change (%, negative = inhibition) at 1uM
COC(=O)c1sccc1NC(=S)Nc1ccc(F)cc1 | 6.41%
O=C(Nc1ccc(F)c([N+](=O)[O-])c1)C(=O)c1c(O)[nH]c2ccccc12 | 14.7%
COc1cc(CCC(=O)OCC(=O)c2ccc[nH]2)cc(OC)c1OC | 8.51%
CCCc1nn(C)c(C(N)=O)c1[N+](=O)[O-] | 10.2%
CCCN(CCC)c1nc(-c2ccccn2)nc2ccccc12 | -72.4%
CCCc1c(C)c2cccc(C)c2[nH]c1=O | 6.68%
CCn1c(=O)c([N+](=O)[O-])c(N2CCOCC2)c2ccccc21 | 8.89%
N#Cc1cc(-c2ccccc2)oc1NC(=O)c1ccccc1 | 7.8%
Cc1ccc(OCC(=O)Nc2ccc(S(=O)(=O)Nc3onc(C)c3C)cc2)cc1 | 12.2%
C[C@H](NC(=O)c1[nH]cnc1C(=O)Nc1ccon1)c1ccccc1 | 20%
Cc1cccc(N2CCN(C(=O)CC(NC(=O)c3ccccc3Cl)c3ccccc3)CC2)c1C (stereo not drawn) | -28.4%
COC(=O)c1cc(S(=O)(=O)NCC2CCN(CCc3cccs3)CC2)c[nH]1 | -3.63%
CC(=O)c1ccc(NC(=O)CN(C)CC(=O)Nc2cccc(F)c2)cc1 | 0.653%
Cc1ccc(-c2cc(C(=O)NN=C3CCCC3)c3ccccc3n2)cc1 | 12.6%
S=C(NC1CCCC1)N1CCN(c2cccc(Cl)c2)CC1 | -7.24%
Cc1ccc(-c2cc(C(=O)N3CCN(c4ncccn4)CC3)c3ccccc3n2)cc1 | 12.8%
CN(C)S(=O)(=O)N1CCN(CC(O)COc2ccc(-c3ccccc3)cc2)CC1 (stereo not drawn) | 4.4%
O=C(NCC(=O)N(c1ccc(F)cc1)C(C(=O)NC1CCCCC1)c1ccncc1)c1ccco1 (stereo not drawn) | 14.4%
O=C(N[C@@H](Cc1ccc(O)cc1)C(=O)O)C(c1ccccc1)c1ccccc1 | 12.5%
COc1cc(OC)nc(Oc2ccccc2C(=O)Oc2ccccc2Cl)n1 | 7.32%
O=C(Nc1nccs1)C1CCCN(S(=O)(=O)c2cccc3cccnc23)C1 (stereo not drawn) | 5.43%

Source: paper PMC4336329 (PLoS ONE, 2015)
